# Out of some 310,000 compounds screened, about 14,000 (4.5%) showed an effect of 50% or more. The effect is printed as a negative number. The list shows a part of the results.
# Target: human ether-à-go-go-related gene (hERG) potassium channel (human, UniProt Q12809)
# Test: primary screen, population patch clamp on CHO cells stably expressing hERG
# 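Note: peak tail current of the secondary pulse compared with the same well before compound.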
# Sequence of human ether-à-go-go-related gene (hERG) potassium channel (Q12809 whole entry, looked up): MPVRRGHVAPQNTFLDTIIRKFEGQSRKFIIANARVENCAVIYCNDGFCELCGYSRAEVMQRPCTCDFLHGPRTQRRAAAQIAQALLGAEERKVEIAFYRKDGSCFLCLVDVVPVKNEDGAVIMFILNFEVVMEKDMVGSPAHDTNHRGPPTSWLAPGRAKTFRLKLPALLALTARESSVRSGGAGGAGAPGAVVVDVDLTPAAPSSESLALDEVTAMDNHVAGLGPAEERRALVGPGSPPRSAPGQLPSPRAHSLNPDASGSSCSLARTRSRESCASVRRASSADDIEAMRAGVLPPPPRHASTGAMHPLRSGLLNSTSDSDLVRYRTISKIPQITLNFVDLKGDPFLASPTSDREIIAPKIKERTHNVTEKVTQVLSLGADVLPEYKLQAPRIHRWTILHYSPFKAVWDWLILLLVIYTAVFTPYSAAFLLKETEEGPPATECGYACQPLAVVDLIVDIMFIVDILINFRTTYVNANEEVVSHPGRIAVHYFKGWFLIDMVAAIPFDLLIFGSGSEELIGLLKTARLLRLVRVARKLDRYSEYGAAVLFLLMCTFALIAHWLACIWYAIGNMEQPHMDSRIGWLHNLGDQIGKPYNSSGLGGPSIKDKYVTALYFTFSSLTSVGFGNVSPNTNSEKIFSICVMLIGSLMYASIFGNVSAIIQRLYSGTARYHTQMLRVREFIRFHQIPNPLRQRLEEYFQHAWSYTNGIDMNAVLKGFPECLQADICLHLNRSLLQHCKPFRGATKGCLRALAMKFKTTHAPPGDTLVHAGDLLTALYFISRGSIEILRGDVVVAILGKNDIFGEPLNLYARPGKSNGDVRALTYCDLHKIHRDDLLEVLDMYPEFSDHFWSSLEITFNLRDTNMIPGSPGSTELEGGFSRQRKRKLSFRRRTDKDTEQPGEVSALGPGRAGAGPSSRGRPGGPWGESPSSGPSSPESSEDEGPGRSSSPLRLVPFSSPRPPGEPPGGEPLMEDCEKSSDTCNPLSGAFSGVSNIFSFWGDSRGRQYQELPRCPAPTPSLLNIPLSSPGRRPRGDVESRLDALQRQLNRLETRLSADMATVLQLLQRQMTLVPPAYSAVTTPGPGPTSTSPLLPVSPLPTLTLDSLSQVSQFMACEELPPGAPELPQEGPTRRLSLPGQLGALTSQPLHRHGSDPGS
row,SMILES,"hERG current change (%, negative = inhibition) at 10uM [%]"
1,O=C(c1cc(-c2ccc(F)cc2)nc2ccccc12)N1CCN(C2CCS(=O)(=O)C2)CC1 (stereo not shown),-69
2,N=c1c2c(-c3ccccc3)c(-c3ccccc3)n(Cc3ccco3)c2ncn1Cc1ccccc1,-69.3
3,Cc1cc(C)c(S(=O)(=O)N(CC(=O)O)C2CCCCC2)c(C)c1,-1.08
4,CCOC(=O)c1c(-c2cccc([N+](=O)[O-])c2)csc1NC(=O)C1CC1,-1.41
5,COc1cc(CN2CCC(n3nccc3NC(=O)C3CCOC3)CC2)ccc1F (stereo not shown),-6.78
6,Cc1ccccc1CN1CCN(C(=O)c2ccc(F)cc2)CC1.O=C(O)C(=O)O,9.11
7,COc1ccc(NC(=O)c2ccccc2NS(=O)(=O)c2ccc(C)cc2)c([N+](=O)[O-])c1,9.99
8,COCCNc1nnc(Cc2ccc(OC)c(OC)c2)c(=O)[nH]1,0.23
9,COCC1CCCN(Cc2cn[nH]c2-c2cc3ccccc3o2)C1 (stereo not shown),-47.5
10,Cc1cc(C)nc(NC(=O)c2cccs2)n1,11.5
11,COCc1c(C(=O)N/N=C/c2c[nH]c3ccccc23)nnn1-c1nonc1N,18.2
12,Cc1cc(Cl)ccc1NC(=O)CN1CCCC1,27.1
13,O=C(OCC1COc2ccccc2O1)c1c(F)cccc1F (stereo not shown),5.16
14,COc1ccc(Cn2nnnc2CN2CCC(O)(c3ccccc3F)CC2)cc1,-5.36
15,COc1ccc(CCn2c3c(c(=O)[nH]c2=O)C(NC(=O)c2cccs2)(C(F)(F)F)C(=O)N3)cc1OC (stereo not shown),6.47
16,N#CCCN(Cc1ccccc1)C(=O)Nc1ccccc1,18.5
17,Cc1ccc(C)c(OCCSc2nnc(-c3cccnc3)n2N)c1,10.3
18,CN[C@H]1CCc2cc(OC)c(OC)c(OC)c2-c2ccc(N(C)CC(OC)OC)c(=O)cc21,23.5
19,O=C(CSC(=S)N1CCOCC1)Nc1nc(-c2ccccc2)c(-c2ccccc2)o1,8.56
20,CC(NC(=O)Nc1cccc([N+](=O)[O-])c1)(C(F)(F)F)C(F)(F)F,15.5
21,COc1ccc(C(=O)CSc2nnc(-c3ccco3)o2)cc1,18.8
22,O=C(Nc1ccccc1OC(F)F)c1oc2ccccc2c1COc1ccccc1,0.283

row,SMILES,"hERG current change (%, negative = inhibition) at 10uM [%]"
1,NC(=NC1CCCCC1)NS(=O)(=O)c1ccccc1,13.6
2,O=C(O)CCCC(=O)NCCc1cccc(Cl)c1,10.3
3,CCOc1ccc(NC(=O)CSc2nnc(C34CC5CC(CC(C5)C3)C4)n2C)cc1,-0.647
4,O=C(Nc1ccccc1C(=O)N/N=C/c1ccccc1)c1ccco1,-2.78
5,Cc1ccccc1C(=O)N1CCN(c2nc(N3CCOCC3)nc(N3CCOCC3)n2)CC1,8.56
6,CCOc1ccc(Br)cc1C(=O)N/N=C/c1c[nH]c2ccccc12,21.5
7,O=C(CCl)NCCCCCCCCCNC(=O)CCl,9.69
8,Cc1cc(/C=N/O)c(C)n1-c1ccccc1,12.8
9,CCN(CC)CCNC(=O)c1ccc2c(c1)NC(=O)c1ccccc1S2,-31.9
10,Cc1cc(NC(=O)C(C)SCC(=O)Nc2ccc(SC(F)F)cc2)no1 (stereo not shown),-32.7
11,C=CCNC(=O)NS(=O)(=O)c1ccc(C)cc1,16.2
12,Cc1ccc(S(=O)(=O)NC(=O)NCc2ccc3c(c2)OCO3)cc1,13.7
13,CCOc1ccc2[nH]c3ncccc3c(=O)c2c1,18
14,COc1ccc(NC(=O)COc2ccc(C(=O)NCc3cccnc3)cc2OC)cc1,-6.31
15,CC(C)c1cc(C(=O)NCCc2ccccc2)no1,-40.1
16,COc1ccc(CN(C)C(=O)/C=C/c2ccc(S(=O)(=O)N3CCCCCC3)cc2)cc1,-6.95
17,CC(=O)c1cccc(NC(=O)c2ccoc2C)c1,-0.456
18,CN(C)C=O.N=C1C(c2nc(-c3ccc(Br)cc3)cs2)=C(O)CN1NC(=O)c1ccc([N+](=O)[O-])cc1,14.5
19,Cc1ccc(-n2nc(C(=O)c3ccccc3)n3c(=O)cc(-c4ccccc4)nc23)cc1,11.4
20,CN(Cc1ccccc1)CC(O)COc1ccc(CNCCc2ccncc2)cc1 (stereo not shown),-17.5
21,Cc1cccn2c(=O)c(/C=C(\C#N)S(=O)(=O)c3ccccc3)c(N3CCN(C)CC3)nc12,-45.5
